Some of the results follow. The list includes weakly bound sequences.
target: MaxL homodimer (UniProt P61244); assay: universal protein-binding microarray (PBM); details: PBS-based mixture, 10 nM His-tagged protein dimer, 2% milk, 200 ng/uL BSA, 50 ng/uL salmon testes DNA, 0.02% TX-100; detection with Alexa 488 anti-His …; high values mean tight binding; most listed sequences are background and not binding sites; double strand, one strand shown
UniProt P61244, sequence (P61244 whole entry): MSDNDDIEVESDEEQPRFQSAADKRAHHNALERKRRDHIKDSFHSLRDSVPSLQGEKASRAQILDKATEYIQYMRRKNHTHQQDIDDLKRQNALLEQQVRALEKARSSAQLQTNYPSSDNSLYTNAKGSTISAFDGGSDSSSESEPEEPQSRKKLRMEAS

Sequence | binding signal (normalized occupancy)
TAATTGCA | 0.0767
CTTCACCC | 0.0709
CATGCTCC | 0.105
TATGCCCA | 0.0827
AATTAGAG | 0.0731
ATGGGTAC | 0.0885
GGGGGATA | 0.0856
ACCCAGGG | 0.075
ATGCACAT | 0.091
CTTGCGTC | 0.0745
CCCTTAAC | 0.081
CACGGCTG | 0.0724
AAGGAAGT | 0.0705
CTTTACTC | 0.0791
CAGGCCAG | 0.0704
AAGTGGTC | 0.0703
CGTTAAAA | 0.0745
ACGGTGGC | 0.079
AGAGGCGA | 0.0756
ATTTTGTC | 0.0833
CAGGCTCG | 0.0704
ACATTCAG | 0.0769
GTCCTGGA | 0.0705
AACAGCTA | 0.0702
ACATGGCA | 0.0904

Sequence | binding signal (normalized occupancy)
CAGCCTTA | 0.0704
CTGTTATC | 0.078
CTTTGTTC | 0.0703
CACTGTAG | 0.0709
AGCTCGCC | 0.0687
CGCTTGAA | 0.0767
CCTTCTAC | 0.0814
GGCACCGA | 0.0735
GAACACAC | 0.0767
AATGGGGT | 0.0815
ACATACTA | 0.0827
AAAACGGG | 0.0748
CTTCAAGC | 0.066
ACTGTAAA | 0.07
ATGTACAG | 0.0788
CTTACAAA | 0.0731
GAGACTGC | 0.0672
GCATCGCA | 0.0729
AGTTCTGA | 0.0719
GCCCTAGC | 0.0751
CGCCGTGC | 0.0731
CATCAGTA | 0.0737
ACAACGTG | 0.149
AAAAGCTA | 0.0755
CTCAGTAA | 0.0708

Sequence | binding signal (normalized occupancy)
CTTGCGTA | 0.0773
ATTTAATA | 0.0819
ATCTGGGA | 0.0784
CTCATCAC | 0.0847
CAACTTGG | 0.0743
CTATTAAA | 0.0743
ATGTGGAA | 0.0936
CCGCCTAG | 0.0722
GGCACCAA | 0.0733
CGACTTAC | 0.0757
GCAAACCA | 0.0788
CAAGACCA | 0.0735
AGTAATAA | 0.0782
AGCCAGAG | 0.0664
ATAGTGCA | 0.0789
CCCATGCC | 0.0969
ACTCCTAG | 0.0733
CACTTTAC | 0.0758
ATATGTTG | 0.0848
CTAAGACC | 0.0743
CTATTAAG | 0.0714
GTTTGGAA | 0.0754
CGGCTGTC | 0.0725
ATTATGTC | 0.0782
CGTACAAC | 0.0768

Sequence | binding signal (normalized occupancy)
GAAGACTA | 0.0725
ATATTAGC | 0.0805
CCTAGGGC | 0.0665
ATCCTTGC | 0.082
GTTCAACA | 0.0758
GTCATGAC | 0.0806
TATCTGCA | 0.0786
CTTACGTC | 0.0749
ATTCTTTA | 0.0726
GTCCTAGA | 0.0687
AGTCCCGA | 0.069
AACTTCAC | 0.0762
CTTATGGC | 0.0778
AGATTGTG | 0.078
GACAACTC | 0.0735
CATGCTAC | 0.0953
TCACACCA | 0.0869
ATTTCTAG | 0.068
CTATATTA | 0.0834
GACATGGC | 0.0801
CTTGACAA | 0.0778
CCTTTGAA | 0.075
TCTCTTCA | 0.0695
CCTCTACC | 0.075
AATTGTCT | 0.075

Sequence | binding signal (normalized occupancy)
ACGCGATC | 0.0797
TATACGAA | 0.0761
GTTCAGAA | 0.0721
AGCCACGG | 0.0742
GAGCGGCC | 0.0635
AATCGGAA | 0.0705
GTGACGGA | 0.0773
ATGTCAGC | 0.0849
CGGATAAA | 0.0763
GCTAACAA | 0.0745
TGTCGTAA | 0.0729
CCTAAAGC | 0.0733
GGTGTCCA | 0.0769
TCTGAGAA | 0.0726
TAACACTA | 0.0772
CGTGTACC | 0.0895
ACGACGAA | 0.0694
GTCATACA | 0.0802
CAGAGTCG | 0.0728
CTTACGTA | 0.0743
ATCAATCC | 0.0771
ATCTACCC | 0.0783
AAGGGAAA | 0.074
GCACGAGA | 0.098
CTCTGTTA | 0.0725

Sequence | binding signal (normalized occupancy)
GGACAGGA | 0.0735
GATTGTCA | 0.0753
AGACCTGA | 0.0718
CGGGTCCA | 0.0703
TTAATTAA | 0.0705
ATGCGGAA | 0.0817
AGCTATGA | 0.0732
ACAGTATA | 0.0771
ACCTGAAG | 0.0738
CCCAATGC | 0.081
GTCGGAAC | 0.0707
ACTTATAC | 0.0729
AACGCGTT | 0.0813
ATGTATTG | 0.0801
ACGTTTAT | 0.0828
CGTCAAAG | 0.0685
AACCGTGG | 0.073
CCCAGATC | 0.0708
GATTCAGA | 0.0697
TACGTTGA | 0.082
CCTAAAAG | 0.0737
AATCCCAG | 0.0794
CATTAACG | 0.0806
AACCGACC | 0.0707
CAACAGAC | 0.0756

Sequence | binding signal (normalized occupancy)
GATCGAAC | 0.0706
AACTAGAT | 0.0761
TCTCGCCA | 0.0759
AATAGGTA | 0.0771
ACGGATCA | 0.0738
CCTGTCAC | 0.0799
CCTGTTAC | 0.0862
CAACATTC | 0.0766
GGTCTCGA | 0.0716
AAATTTCC | 0.0687
ACACCACT | 0.077
CCAACCGA | 0.0733
CTAGTTCA | 0.0739
GATGTGTA | 0.0848
AGAAGTCT | 0.075
CCCTCACG | 0.0805
AGACATGC | 0.102
CAGAACCC | 0.0737
TCCGATCA | 0.074
CAGATTCC | 0.0745
TATCCTGA | 0.0793
GCTAAAAC | 0.0745
GCCACGTA | 0.0823
GTCTCCAC | 0.0736
AACATTCC | 0.0768

Sequence | binding signal (normalized occupancy)
CGAATCGC | 0.0706
CTTGTAAA | 0.0729
AGACTTCC | 0.0744
AAAGATTA | 0.0727
CACCGTAC | 0.0762
GAAAAGAC | 0.0747
CAAAACGA | 0.0687
AACAGACC | 0.0741
ACAACTGG | 0.075
AGACCATC | 0.0766
ACATTGAA | 0.0824
CACTATTC | 0.0749
GTAGCTGA | 0.0708
ATTAGTAA | 0.0784
TCAGCAAA | 0.0672
AATGGGGA | 0.0809
ACAGAGAT | 0.0767
CATCTAGC | 0.0802
GGACGATA | 0.0773
ACCTAAAG | 0.0652
AACTTGGA | 0.0689
CAGTAAAC | 0.0746
CGGTTCAG | 0.0693
TAGCGGAA | 0.0678
AGGTTCTC | 0.0859

Sequence | binding signal (normalized occupancy)
AAGTGAGA | 0.0726
GACCACGC | 0.129
AAGAAAAA | 0.0711
ATGCGTAC | 0.0922
GGCGCAAA | 0.0678
AGCGGAAT | 0.0731
ATGCCTCG | 0.0854
ACAATTCG | 0.0769
ACAATGAA | 0.0787
CTTTCCGC | 0.0732
AGCGTGTG | 0.0954
AATAAACT | 0.07
TCGGAACA | 0.0723
ACGCGCCC | 0.0753
ACTTTCCT | 0.0742
GGGACCCC | 0.0741
CTCGTCAA | 0.0721
CCGACCGA | 0.07
ATCCCACC | 0.0833

— article PMC4242493
